Assay results from paper PMC9547309.
These are yes or no findings as the source states them, for the method shown. Binding seen in cells or lysates may run through a third protein. Some results given as binding are weak or reduced against the parent protein; the word gives no strength. For some of these results: Where a sequence is shown, tags or fusion partners need not be part of it.

Sequences of proteins named here, by UniProt entry; tags and fusion partners are left off. A change or cut given only in a name is not applied to a line headed by its entry. Residues count along the entry.
UniProt P05106, residues 27-788: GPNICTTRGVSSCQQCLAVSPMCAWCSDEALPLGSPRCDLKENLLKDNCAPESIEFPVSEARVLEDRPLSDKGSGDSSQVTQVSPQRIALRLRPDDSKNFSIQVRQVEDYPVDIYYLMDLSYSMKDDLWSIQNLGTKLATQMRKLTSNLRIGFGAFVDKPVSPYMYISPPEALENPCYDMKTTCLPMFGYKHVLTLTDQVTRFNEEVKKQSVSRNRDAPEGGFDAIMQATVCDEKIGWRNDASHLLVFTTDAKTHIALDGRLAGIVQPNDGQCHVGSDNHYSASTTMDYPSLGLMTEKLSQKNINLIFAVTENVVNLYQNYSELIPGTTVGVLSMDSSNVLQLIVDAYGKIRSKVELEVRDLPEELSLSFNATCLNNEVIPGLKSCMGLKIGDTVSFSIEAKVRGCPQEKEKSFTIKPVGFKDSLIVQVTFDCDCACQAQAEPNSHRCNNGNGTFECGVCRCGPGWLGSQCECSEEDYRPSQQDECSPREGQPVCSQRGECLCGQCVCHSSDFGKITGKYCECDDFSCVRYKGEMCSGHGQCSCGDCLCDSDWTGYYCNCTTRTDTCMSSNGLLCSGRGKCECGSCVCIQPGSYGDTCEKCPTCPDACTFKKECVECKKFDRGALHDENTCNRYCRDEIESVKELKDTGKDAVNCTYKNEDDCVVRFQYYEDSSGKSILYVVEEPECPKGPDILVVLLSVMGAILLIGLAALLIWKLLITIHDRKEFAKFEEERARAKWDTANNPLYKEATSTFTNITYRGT
UniProt P06756, residues 31-1048: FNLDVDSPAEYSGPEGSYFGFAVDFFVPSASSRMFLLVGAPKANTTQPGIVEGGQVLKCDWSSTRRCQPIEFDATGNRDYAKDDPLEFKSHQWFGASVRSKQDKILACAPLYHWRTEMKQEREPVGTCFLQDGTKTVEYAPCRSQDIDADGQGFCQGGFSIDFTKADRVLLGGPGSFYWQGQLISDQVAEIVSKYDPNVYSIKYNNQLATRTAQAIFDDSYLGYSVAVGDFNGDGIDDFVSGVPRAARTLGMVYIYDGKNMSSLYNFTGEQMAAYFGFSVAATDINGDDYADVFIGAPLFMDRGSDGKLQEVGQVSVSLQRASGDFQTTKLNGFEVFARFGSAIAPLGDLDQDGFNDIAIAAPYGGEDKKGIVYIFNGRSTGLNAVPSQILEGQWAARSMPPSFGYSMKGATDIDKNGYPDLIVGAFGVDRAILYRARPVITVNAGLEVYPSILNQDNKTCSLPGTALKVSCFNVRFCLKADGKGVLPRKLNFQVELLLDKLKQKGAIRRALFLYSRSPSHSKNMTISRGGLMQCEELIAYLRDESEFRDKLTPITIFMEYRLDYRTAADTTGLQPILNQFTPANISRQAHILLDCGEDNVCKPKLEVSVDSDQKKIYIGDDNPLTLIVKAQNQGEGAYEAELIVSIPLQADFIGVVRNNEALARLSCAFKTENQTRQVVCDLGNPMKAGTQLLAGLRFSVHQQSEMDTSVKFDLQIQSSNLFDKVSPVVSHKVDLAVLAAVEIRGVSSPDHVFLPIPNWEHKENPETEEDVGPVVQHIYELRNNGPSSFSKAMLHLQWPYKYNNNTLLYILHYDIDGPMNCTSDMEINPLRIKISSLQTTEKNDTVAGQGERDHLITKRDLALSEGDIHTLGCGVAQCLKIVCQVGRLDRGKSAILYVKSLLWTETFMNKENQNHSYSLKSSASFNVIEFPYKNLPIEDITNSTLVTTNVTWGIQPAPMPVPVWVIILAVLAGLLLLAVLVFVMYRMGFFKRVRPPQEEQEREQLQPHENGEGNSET

Legend:
[1] = target: T1, myc-tagged RSPO2 TSP mutant (145-243) (UniProt Q6UXX9); assay: co-IP; OVCAR3 cells transfected with empty vector, myc-tagged RSPO2 (WT), FUs or TSP; lysates immunoprecipitated and probed with anti-Myc, anti-LGR4 or anti-integrin-β3 (Figure 6G)
T1 sequence: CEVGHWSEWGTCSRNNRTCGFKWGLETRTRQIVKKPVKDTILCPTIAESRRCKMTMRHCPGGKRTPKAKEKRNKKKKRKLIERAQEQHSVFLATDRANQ

[2] = target: myc-tagged full-length RSPO2 (UniProt Q6UXX9); assay: as above
[3] = target: myc-tagged RSPO2 FUs mutant (1-146) (UniProt Q6UXX9); assay: as above
[4] = target: endogenous RSPO2 (human (endogenous in A2780 and OVCAR3)) (UniProt Q6UXX9); assay: co-IP; endogenous proteins in A2780 and OVCAR3 lysates, reciprocal (Figures 5F, 6E); 50 mM Tris-HCl pH 7.5, 150 mM NaCl, 1% Triton X-100, 1 mM EDTA, 10% glycerol; 4°C
[5] = target: His-tagged recombinant human RSPO2 protein (human) (UniProt Q6UXX9); assay: pull-down; His-tagged RSPO2 (about 20 μg) bound to Ni2+-NTA agarose beads (Pierce Cobalt kit), incubated 3 h at 4°C with 200 μg HEK293T cell extract containing Flag-tagged integrin αv or β3; Western blot with anti-His and anti-Flag; only the target purified
[6] = target: endogenous integrin β3 (human (endogenous in A2780 and OVCAR3)) (UniProt P05106); assay: co-IP; endogenous proteins in A2780 and OVCAR3 lysates, reciprocal (Figures 5F, 6E); 50 mM Tris-HCl pH 7.5, 150 mM NaCl, 1% Triton X-100, 1 mM EDTA, 10% glycerol; 4°C

In the case of “endogenous integrin β3 (from UniProt P05106 27-788) (receptor)”, the binding [1] is reported as “no binding”, the binding [2] is reported as “binds” and the binding [3] is reported as “binds”. For the same substance, the binding [4] was “binds”.

For “Flag-tagged integrin β3 (from UniProt P05106-1 27-788) (receptor)”, the binding [5] was “binds”.

“Flag-tagged integrin αv (from UniProt P06756-1 31-1048) (receptor)” was tested, and the binding [5] was “no binding”.

For “endogenous RSPO2 (from UniProt Q6UXX9 22-243) (ligand)”, the binding [6] was “binds”.
